In assay [1] the target is T1, GCase-L444P lysosomal activity in HiBiT-GCase-L444P H4 cells (Homo sapiens, UniProt P04062, L483P).
T1 sequence (P04062 40-536 L483P): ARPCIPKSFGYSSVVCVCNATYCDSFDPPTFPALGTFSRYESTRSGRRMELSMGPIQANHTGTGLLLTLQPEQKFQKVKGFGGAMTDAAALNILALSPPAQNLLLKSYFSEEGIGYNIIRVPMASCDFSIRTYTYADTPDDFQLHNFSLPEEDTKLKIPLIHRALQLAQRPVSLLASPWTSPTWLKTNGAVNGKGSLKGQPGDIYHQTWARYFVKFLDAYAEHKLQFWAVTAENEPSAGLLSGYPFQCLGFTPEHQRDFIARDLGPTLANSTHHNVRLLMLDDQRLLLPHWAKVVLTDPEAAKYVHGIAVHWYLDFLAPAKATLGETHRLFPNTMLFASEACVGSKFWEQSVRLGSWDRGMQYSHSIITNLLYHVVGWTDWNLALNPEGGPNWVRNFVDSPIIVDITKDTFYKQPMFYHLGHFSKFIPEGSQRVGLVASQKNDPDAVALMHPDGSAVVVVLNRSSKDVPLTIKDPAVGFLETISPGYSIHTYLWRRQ
Nature of the assay: LysoFix-GBA high-content lysosomal GCase activity assay. Conditions: 24 h compound incubation, LysoFix-GBA 5 μM.

In another assay the target is T2, HiBiT-GCase-L444P (Homo sapiens, UniProt P04062, L483P).
T2 sequence (P04062 40-536 L483P): T1 sequence (P04062 40-536 L483P)
Also on record: AUC: unit not given beside the values. Conditions: follow-up screen, 24 h; for Efficacy: relative to DMSO control; for CC-v2: qHTS curve class. For orientation: qHTS replaces the single test concentration by a dilution series.

Experimental findings from article PMC11494340, “High-throughput screening for small-molecule stabilizers of misfolded glucocerebrosidase in Gaucher disease and Parkinson’s disease” (Proceedings of the National Academy of Sciences of the …, 2024) are described below.

The structures appear in SMILES notation. Where a name gives a salt, the structure may show the parent alone. Read-outs that look alike come from different tables or passages of the source.

`O[C@H]1[C@H](O)CNC[C@@H]1C(F)F` [AT3375]: the “LysoFix-GBA response (GCase-L444P lysosomal activity)” value in assay [1] is “inhibited”.
In the case of `COc1cc2c(cc1O)C(c1ccc(O)cc1)C(C)C(C)C2` (stereo not shown) [NCGC00380925-01], at HiBiT-GCase-L444P, half-maximal activity (AC50) was put at 29.8 µM, the AUC is 103.5, the Efficacy is 175 and the CC-v2 is on record as 1.1.
With `C=C1/C(=C\C=C2/CCC[C@]3(C)[C@@H]([C@H](C)/C=C/[C@@H](O)C4CC4)CC[C@@H]23)C[C@@H](O)C[C@@H]1O` [NCGC00167465-02, Calcipotriene], on HiBiT-GCase-L444P, half-maximal activity (AC50) was put at 28.2 µM, the AUC is -35.4 and the CC-v2 is given as 2.2.
Take `O=C(Nc1cc(C(F)(F)F)ccc1O)Nc1cc(C(F)(F)F)ccc1O` [NCGC00165838-03, NS1643]: on HiBiT-GCase-L444P, the AC50 (usually the midpoint of the concentration-response curve, whichever way the signal moves) was 53 µM; the AUC is 85.4; the Efficacy is 130; the CC-v2 came to 1.1.
At HiBiT-GCase-L444P, `CC(=O)SCC(=O)c1ccc(NS(=O)(=O)c2ccc(OCCCN(C)C)cc2)nc1` [NCGC00387131-01, KD 5170] showed an AC50 of 0.376 µM, an AUC of 952.7, an Efficacy of 402 and a CC-v2 of 1.1.
Consider `C#Cc1cccc(Nc2ncnc3cc(OC)c(OCCCCCCC(=O)NO)cc23)c1` [NCGC00263177-10, CUDC-101], for which, at HiBiT-GCase-L444P, half-maximal activity (AC50) was put at 1.2 µM, the AUC stood at 432.6 and the CC-v2 was found to be 1.1. Also, at HiBiT-GCase-L444P (listed as NCGC00263177-07), the AC50 is 0.266 µM and the AUC was determined as 251.5.
Regarding `C[C@]12CC[C@H](O[C@@H]3O[C@H](CO)[C@@H](O)[C@H](O)[C@H]3O)CC1=CC[C@@H]1C2CC[C@]2(C)[C@@H](C3=CC(=O)OC3)CC[C@]12O` (stereo partly shown) [NCGC00381297-01], on HiBiT-GCase-L444P, half-maximal activity (AC50) was put at 4.4 µM, the AUC worked out at 126.4, the Efficacy came to 183 and the CC-v2 was 1.1.
For `Nc1ccccc1NC(=O)c1ccc(CNC(=O)OCc2cccnc2)cc1` [NCGC00165833-13, Entinostat], on HiBiT-GCase-L444P, half-maximal activity (AC50) was put at 4.2 µM, the AUC is 434.3 and the CC-v2 is 1.1.
On HiBiT-GCase-L444P, `CCN(CC)Cc1ccc2cc(COC(=O)Nc3ccc(C(=O)NO)cc3)ccc2c1.Cl.O` [NCGC00346743-01, Givinostat hydrochloride] had a concentration at half-maximal activity (AC50) of 0.211 µM, an AUC of 867.4, an Efficacy of 350 and a CC-v2 of 1.1.
For `CCCCc1nc2cc(/C=C/C(=O)NO)ccc2n1CCN(CC)CC` [NCGC00263136-04, Pracinostat], at HiBiT-GCase-L444P, half-maximal activity (AC50) was put at 0.376 µM, the AUC was determined as 893.2 and the CC-v2 came to 1.1.
On HiBiT-GCase-L444P, `C=C1[C@@H](C2=CC(=O)OC2)CC[C@@]2(O)[C@@H]1CC1[C@H]2CC[C@@H]2C[C@@H](O[C@H]3O[C@@H](C)[C@@H](O[C@@H]4O[C@H](CO[C@@H]5O[C@H](CO)[C@@H](O)[C@H](O)[C@H]5O)[C@@H](O)[C@H](O)[C@H]4O)[C@H](OC)[C@H]3O)CC[C@]12C` (stereo partly shown) [NCGC00169844-02] returned a concentration at half-maximal activity (AC50) of 4 µM, an AUC of 142.3, an Efficacy of 169 and a CC-v2 of 1.1.
At HiBiT-GCase-L444P, `Cc1cccc2c1NC(=O)C2(c1ccc(O)cc1)c1ccc(O)cc1` [NCGC00408892-01, BHPI] displayed an AC50 of 10.6 µM, an AUC of 121.6, an Efficacy of 137 and a CC-v2 of 1.1.
In the same order, the values of `O=C(NCCCn1ccnc1)c1cc(-c2ccco2)on1` [NCGC00386690-01, SKL 2001] are 23.7 µM, 184.5, 380 and 1.1.
Regarding `O=C(NCCCNC(=O)c1ccc[nH]c1=O)c1cc(-c2ccccc2)on1` [NCGC00386818-01, ML327], at HiBiT-GCase-L444P, the AC50 is 6 µM, the AUC is given as 504.8, the Efficacy is 436 and the CC-v2 amounted to 1.1.
In the same order, the values of `Cc1cc(Nc2nc(-c3ccccc3)nc3ccccc23)n[nH]1` [NCGC00387776-01, GSK-3 inhibitor XIII] are 11.9 µM, 74.8, 142 and 1.1.
Regarding `CC(C)(C)c1cc(C(C)(C)C)c(NC(=O)c2c[nH]c3ccccc3c2=O)cc1O` [NCGC00242480-08, Ivacaftor], at HiBiT-GCase-L444P, half-maximal activity (AC50) was put at 11.9 µM, the AUC came to 113.6 and the CC-v2 was 1.1.
Regarding `O=C(O)C1(c2ccc(-c3ccc(Cl)c(Cl)c3)c(F)c2)CC1` [NCGC00408905-01, CHF 5074], on HiBiT-GCase-L444P, the AC50 was 21.1 µM, the AUC is listed as 113.4, the Efficacy worked out at 124 and the CC-v2 is reported as 1.1.
On HiBiT-GCase-L444P, `Clc1cccc(C2CCN(CCCOc3ccc4scnc4c3)CC2)c1Cl` [NCGC00510336-01, UNC 9994 hydrochloride] registered an AC50 of 42.1 µM, an AUC of -30.0, an Efficacy of 42 and a CC-v2 of 1.2.
For `CC12CCC(OC3OC(CO)C(O)C(O)C3OC3OC(CO)C(O)C(O)C3O)CC1CCC1C2CCC2(C)/C(=C3/COC(=O)C3)CCC12O` (stereo not shown) [NCGC00384525-01], in that order: 4.4 µM, 248.3, 212 and 1.1.
In the same order, the values of `C=CC(=O)Nc1ccc2ncnc(Nc3cccc(Br)c3)c2c1` [NCGC00386260-01, PD-168393] are 14.9 µM, 30.6, 67 and 1.2.
On HiBiT-GCase-L444P, `Cc1[nH]c(/C=C2\C(=O)Nc3ccc(F)cc32)c(C)c1C(=O)NCCN1CCCC1` [NCGC00378902-09, Toceranib] showed a half-maximal activity concentration (AC50) of 31.6 µM, an AUC of 39.8 and a CC-v2 of 2.3.
`CC(=O)C1=CCC2C3CC=C4CC(O)CC(O)C4(C)C3C(O)CC12C` (stereo not shown) [NCGC00380953-01]: on HiBiT-GCase-L444P, the activity was half-maximal at 29.2 µM (AC50), the AUC is listed as 62.8, the Efficacy worked out at 244 and the CC-v2 is 1.1.
For `Cc1cc(C)n2ncc(C(=O)Nc3ccc(C#CCCCN4CCN(C)CC4)cc3)c2n1` [NCGC00242356-01], in that order: 89.1 µM, 47.3, 58 and 1.2.
On to `Cc1nn(C)cc1CN1CCC(c2ccc(C(=O)Nc3ccccc3N)cc2)CC1` [NCGC00522526-01, HDAC-IN-4], for which, at HiBiT-GCase-L444P, half-maximal activity (AC50) was put at 3.3 µM, the AUC was found to be 516.9, the Efficacy is given as 348 and the CC-v2 worked out at 1.1.
In the same order, the values of `CC1(C)CCCC2(C)C1CC(=O)C13CC(CCC12)C(O)(CO)C3` (stereo not shown) [NCGC00384807-01] are 5.2 µM, 35.4, 71 and 1.2.
On HiBiT-GCase-L444P, `COC(=O)N[C@@H](C)CNc1nccc(-c2cn(C(C)C)nc2-c2cc(Cl)cc(NS(C)(=O)=O)c2F)n1` [NCGC00378599-02, Encorafenib] came in with an AC50 of 42.1 µM, an AUC of -31.7 and a CC-v2 of 1.2.
At HiBiT-GCase-L444P, `O=C(NO)c1ccc(CC(=O)N(CCO)c2ccccc2)cc1` [NCGC00384200-02, HPOB] had an AC50 of 26.6 µM, an AUC of 109.7, an Efficacy of 272 and a CC-v2 of 1.1.
For `NC(=O)c1nnn(Cc2cc(Cl)c(C(=O)c3ccc(Cl)cc3)c(Cl)c2)c1N` [NCGC00014926-04, L-651,582], in that order: 59.5 µM, -32.6, 119 and 2.1.
With `O=C(Nc1nc2cccc(-c3ccc(CN4CCS(=O)(=O)CC4)cc3)n2n1)C1CC1` [NCGC00345855-05, Filgotinib], on HiBiT-GCase-L444P, the AC50 worked out at 16.8 µM, the AUC is on record as 45.7 and the CC-v2 came out at 2.1.
On to `C=C1C(=O)O[C@@H]2C3C(=C(C)[C@@H](O)[C@@H](OC(=O)/C(=C/C)COC(C)=O)[C@@H]12)C(=O)[C@H]1O[C@@]31C` (stereo partly shown) [NCGC00168883-03], for which, at HiBiT-GCase-L444P, the AC50 is 9.2 µM, the AUC is on record as 12.8, the Efficacy turned out to be 103 and the CC-v2 is listed as 1.1.
For the compound `COc1ccc(CNC(=O)Nc2ncc([N+](=O)[O-])s2)cc1` [NCGC00371125-13, AR-A014418], on HiBiT-GCase-L444P, half-maximal activity (AC50) was put at 47.3 µM, the AUC is 123.3, the Efficacy is listed as 230 and the CC-v2 worked out at 1.1.
At HiBiT-GCase-L444P, `CCOC(=O)C1=C[C@]2(CC)CCCN3CCc4c(n1c1ccccc41)[C@@H]32` [NCGC00018204-17, Vinpocetine] had an AUC of -30.6 and a CC-v2 of 2.4.
`COc1cccc(NC[C@@H](O)Cn2c3ccc(Br)cc3c3cc(Br)ccc32)c1` [NCGC00408808-01, (R)-P7C3-Ome]: on HiBiT-GCase-L444P, half-maximal activity (AC50) was put at 10.6 µM, the AUC is on record as 157.8, the Efficacy turned out to be 264 and the CC-v2 is 1.1.
